# Over roughly 110,000 compounds, “z-score” has its median near -0.1; the highest 2% begin near 2. The list shows a part of the results. Non-standard residues stand in square brackets, D forms with d. Residues, ends and D or L forms follow the SMILES beside them. ξ: configuration not given here. *: point of attachment. ξPhe(4-Me) = Cc1ccc(CC(N)C(=O)O)cc1; Bz = O=C(c1ccccc1)*
# Target: Metabotropic glutamate receptor 8 (Rattus norvegicus) (UniProt P70579)
# Test: mGluR8 Gi/Go-coupled signaling modulation – cell-based, rat, thallium flux, HTS, primary screen (AID 488969)
# Conditions: HEK293 rat mGluR8, GIRK (G protein-gated inwardly rectifying potassium channel) thallium flux, FluoZin2; at 10 µM; stronger effect = higher value; submaximal glutamate (EC20) added with thallium
# Sequence of UniProt P70579 (P70579 whole entry, looked up): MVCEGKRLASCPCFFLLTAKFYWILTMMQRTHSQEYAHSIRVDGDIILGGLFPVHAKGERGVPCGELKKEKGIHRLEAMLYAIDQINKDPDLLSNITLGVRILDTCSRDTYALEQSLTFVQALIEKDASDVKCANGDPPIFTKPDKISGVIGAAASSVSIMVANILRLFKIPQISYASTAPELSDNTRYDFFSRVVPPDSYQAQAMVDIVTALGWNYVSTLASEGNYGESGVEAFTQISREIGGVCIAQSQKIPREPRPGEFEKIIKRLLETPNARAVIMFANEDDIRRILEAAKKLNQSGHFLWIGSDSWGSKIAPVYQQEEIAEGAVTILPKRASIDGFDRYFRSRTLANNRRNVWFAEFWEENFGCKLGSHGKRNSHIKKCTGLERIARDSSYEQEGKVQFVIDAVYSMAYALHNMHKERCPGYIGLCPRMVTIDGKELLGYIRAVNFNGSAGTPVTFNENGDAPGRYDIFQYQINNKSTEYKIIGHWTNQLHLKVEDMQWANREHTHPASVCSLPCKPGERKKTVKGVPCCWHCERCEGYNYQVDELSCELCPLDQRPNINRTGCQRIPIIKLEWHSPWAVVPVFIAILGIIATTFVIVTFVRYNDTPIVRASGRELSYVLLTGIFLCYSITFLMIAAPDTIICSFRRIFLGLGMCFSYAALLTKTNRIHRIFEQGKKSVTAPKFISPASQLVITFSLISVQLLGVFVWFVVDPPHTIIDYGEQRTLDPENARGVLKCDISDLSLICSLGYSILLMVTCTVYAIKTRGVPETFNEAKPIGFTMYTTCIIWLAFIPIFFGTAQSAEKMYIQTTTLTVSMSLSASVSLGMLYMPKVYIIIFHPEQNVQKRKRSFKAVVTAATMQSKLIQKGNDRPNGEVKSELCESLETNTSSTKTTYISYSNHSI
row,Structure (SMILES),z-score
1,C=CCNCC#CCOc1ccc(OC)cc1,0.521
2,Cc1n[nH]c(C)c1S(=O)(=O)N1CCC(C(=O)O)CC1,-0.299
3,CCN(CC)S(=O)(=O)c1ccc(S(=O)(=O)Nc2cc3c(cc2C(C)=O)OCO3)cc1,1.3
4,COc1ccccc1N1CCN(C(=O)C2c3ccccc3Oc3ccccc32)CC1,-0.083
5,Cc1nc2ccccc2nc1N1CCCCC1,-0.522
6,C=CCNC(=O)CC(C)C(CCCCC)C(=O)O (configuration not stated),-0.15
7,CCOC(=O)Cn1cc(/C=N/NC(=O)c2ccc(C#N)cc2F)c2ccccc21,-0.218
8,CCCOC(=O)c1ccc(Cl)c(NC(=O)c2ccc(-c3ccccc3)cc2)c1,-0.235
9,O=C(CCc1ccccc1)Nc1nc2n(n1)C(c1ccccc1)CC(=O)N2 (configuration not stated),-0.144
10,C=CCOc1cccc(C2/C(=C(\O)c3ccc(F)cc3)C(=O)C(=O)N2CCN(C)C)c1 (configuration not stated),-0.198
11,Cc1ccc(O)c(Sc2cc(C)ccc2O)c1,0.148
12,CCn1c(SCc2ccccc2Cl)nc2nc3c(cc2c1=O)CCCC3,-0.0701
13,O=C(c1ccco1)N1CCN(c2cccc(Cl)c2)CC1,-0.585
14,O=C(c1c(Cl)nc2sccn12)N1CCN(c2cccc(Cl)c2)CC1,0.238
15,Cn1nnnc1SCC(=O)Nc1ccccc1-c1ccccc1,0.101
16,COc1ccccc1N1C(=O)C2C3C=CC(C3)C2C1=O (configuration not stated),0.175
17,O=C(Nc1cccnc1)/C(N=Nc1cccnc1)=C(\O)c1ccccc1,-0.3
18,O=C(N/N=C/c1ccc2c(c1)OCO2)c1sc2cc(Cl)ccc2c1Cl,-0.24
19,CC(C)(C)C(=O)COC(=O)c1cc2ccccc2cc1O,0.0732
20,CCN(CC)S(=O)(=O)c1ccc(/C=C/C(=O)OCC(=O)Nc2cccc3ccccc23)cc1,0.142
21,Cc1[nH]nc2c1C(c1ccc(F)cc1)C(C#N)=C(N)O2 (configuration not stated),-0.493
22,CON(C)c1nc(Oc2ccc(=O)[nH]n2)nc(N(C)C)n1,0.0683
23,O=S(=O)(c1ccccc1)N1CCN(c2nc3ccccc3s2)CC1,-0.803

row,Structure (SMILES),z-score
1,Cn1c(NC(=O)c2ccc(Br)o2)cc(=O)n(C)c1=O,0.922
2,Cc1sc2ncnc(Sc3nnnn3-c3ccc(Cl)cc3)c2c1C,-0.841
3,COc1cccc(CC(NC(C)=O)C(=O)NC2CCN(c3c(Cc4ccccc4)c(C)nc4ncnn34)CC2)c1OC (configuration not stated),-0.954
4,COC(=O)c1c(NC(=S)Nc2cc(OC)c(Cl)cc2OC)sc2c1CCCCC2,1.46
5,O=C(c1cccc(NS(=O)(=O)c2cccc(F)c2)c1)N1CCN(c2ccccc2)CC1,-0.412
6,CC(c1ccccc1C(O)c1ccccc1)N(C)C (configuration not stated),0.034
7,CCOC(=O)c1c(C)[nH]c(C)c1C(=O)CSc1nc2ccccc2n1CCC#N,-0.206
8,O=C(NCCOc1ccccc1F)c1ccccc1SCc1ccc(F)cc1,-0.926
9,CC1CCN(S(=O)(=O)c2csc(C(=O)Nc3ccccc3)c2)CC1,-0.0213
10,CCCc1cc(=O)[nH]c(Nc2cc(OC)ccc2OC)n1,0.139
11,COc1ccc(OCCC(=O)NCc2ccccc2)cc1,0.0188
12,CCn1c(NCc2ccccn2)nc2ccccc21,-0.447
13,CCSc1nnc(NC(=O)CSc2nccn2-c2cccc(C)c2)s1,1.34
14,CCc1cc(C)cc(OCCNC(=O)c2ncn[nH]2)c1,1.38
15,CC(=O)Oc1ccc(-c2ccc(C(=O)O)cc2)cc1,-0.0897
16,O=C(CN1C(=O)CCS(=O)(=O)c2ccccc21)Nc1cccc(F)c1,-0.608
17,CN(C)CCOC(=O)C12CC3CC(CC(C3)C1)C2,-0.651
18,Cc1cc(NC(=O)c2nn3cccnc3c2Cl)no1,0.255
19,Cc1ccc(NC(=O)COC(=O)/C=C/c2cccs2)c(C)c1,-0.187
20,COc1nc(NCCN2CCOCC2)nc(Nc2ccccc2)n1,-0.161
21,CCCCCOC(=O)Cn1c(N2CCOCC2)nc2c1c(=O)[nH]c(=O)n2C,-0.228
22,COc1cc(/C=C2\SC(=S)N(Nc3ncc(C(F)(F)F)cc3Cl)C2=O)ccc1O,1.29
23,O=C(NCC(=O)N(c1ccc2c(c1)OCO2)C(C(=O)NC1CCCC1)c1cccs1)c1ccco1 (configuration not stated),-0.15

row,Structure (SMILES),z-score
1,CCn1cc(Br)c(C(=O)NCc2ccco2)n1,-0.035
2,Cc1[nH]c2ccc(OCc3ccccc3)cc2c1CCN1C(=O)OC(C)(C)C1(C)O (configuration not stated),0.395
3,COc1ccc(-c2cc(C(F)(F)F)nc(NCc3ccco3)n2)cc1OC,-0.224
4,O=C(Nc1ccc(S(=O)(=O)NCc2ccco2)cc1)c1ccc2ccccc2n1,0.441
5,Cc1nn(CCCC(=O)NCc2ccccc2)c(C)c1[N+](=O)[O-],-0.229
6,CN(C(=O)c1cccc(Nc2ccc(-c3ccc4c(c3)OCCO4)nn2)c1)C1CCCCC1,-0.0525
7,O=C1CCCN1CN(C(=O)c1ccc2c(c1)OCO2)c1cccc(Cl)c1,-0.21
8,CCOC(=O)c1[nH]c(CSc2nnc(-c3ccncc3)n2CCOC)c(C(=O)OCC)c1C,0.162
9,COC(=O)c1[nH]c2cc(OC)ccc2c1NC(=O)CCN1CCN(c2ccccc2)CC1,0.0276
10,COc1cc(C)c(S(=O)(=O)NC2CC(C)(C)NC(C)(C)C2)cc1C,1.09
11,CC(C)(C)C1CCc2c(sc3c2C(=O)NC(c2ccco2)N3)C1 (configuration not stated),-0.267
12,COc1ccc(CN2CCCCC2C)cc1C (configuration not stated),0.24
13,COc1ccc(-c2csc(NC(=O)CC(C)C)n2)cc1,-0.146
14,N#Cc1ccc(Cl)cc1NC(=O)COC(=O)c1ccc(S(=O)(=O)N2CCCC2)cc1,-0.554
15,CCC(Sc1nc2ccc(C)cc2[nH]1)C(=O)O (configuration not stated),0.179
16,COCCOC(=O)C1=C(C)NC(SCC(=O)NC(C)(C)C)=C(C#N)C1c1ccco1 (configuration not stated),-0.204
17,O=C1C2C3C=CC([C@@H]2C(=O)N1Cc1cccnc1)C31CC1 (some centres not stated),0.204
18,CCOC(=O)c1c(NC(=O)c2cccnc2)sc(C(C)=O)c1C,-0.374
19,CCn1c(SCC(=O)NC2CCCCC2)nnc1-c1cccs1,0.0017
20,COC(=O)c1ccc(C2NC(C(=O)O)CS2)cc1 (configuration not stated),0.0669
21,Cc1ccc(CC(NC(=O)c2ccccc2)C(=O)NCC(=O)O)cc1 (configuration not stated) (Bz-[ξPhe(4-Me)]-Gly-OH),-0.182
22,CCOC(=O)C1=C(c2ccccc2)OC(N)=C(C#N)C1c1ccc(Cl)s1 (configuration not stated),0.397
23,Cn1cc(S(=O)(=O)NCc2cccs2)c(=O)n(C)c1=O,-0.114

row,Structure (SMILES),z-score
1,Cc1ccc(-n2nnnc2SC(C(=O)c2c[nH]c3ccccc23)c2ccccc2)cc1 (configuration not stated),-0.184
2,CCCC(NC(=O)CCl)c1ccccc1 (configuration not stated),-0.196
3,O=C(O)c1c2c(nc3ccccc13)CCCCC2,-0.169
4,CCOC(=O)CN(C(=O)CNC(=O)c1cccs1)C(C(=O)NC1CCCCC1)c1cccnc1 (configuration not stated),-0.161
5,CC1Cn2c(nnc2-c2cccs2)S1 (configuration not stated),0.809
6,COc1ccc(/C=N/NC(=O)C2(O)c3ccccc3-c3ccccc32)cc1,-0.188
7,COC(=O)c1cc(OC)ccc1-c1ccc(OC)cc1,-0.081
8,CCCCN(CCNP(=O)(OCC)OCC)CP(=O)(OCC)OCC,-0.386
9,CCn1c(CCC(=O)Nc2nc3c(s2)CCCC3)nc2cc(S(=O)(=O)N(C)C)ccc21,-1.73
10,Cc1cc(NC(=O)CSc2nnc(-c3ccc(Cl)s3)o2)no1,-0.14
11,COc1ccc(C(=S)N2CCNCC2)cc1,-0.24
12,COc1ccc(CCC(=O)N2CCN(C3CCCCC3)CC2)cc1,0.0604
13,CCCCOc1ccc(C(C)NC(=O)CCS(=O)(=O)Cc2ccccc2Cl)cc1 (configuration not stated),0.131
14,COc1cc(CNc2ccccc2Oc2cc(=O)n(C)c(=O)n2C)cc(OC)c1OC,-0.0525
15,CC(=O)Oc1ccc(/C=N/NC(=O)C2CCCN2S(=O)(=O)c2ccc(Cl)cc2)cc1 (configuration not stated),-0.183
16,CCCNc1nc(-c2ccccc2)c(C(=O)OCC)cc1C#N,-0.322
17,CS(=O)(=O)Nc1ccccc1C(=O)Nc1ccc2c(c1)OCCO2,1.36
18,CCOc1ccc(-c2cn[nH]c2N)cc1,0.0827
19,O=C(Nc1cccc(-c2nnc(-c3ccccc3)o2)c1)C1CCCO1 (configuration not stated),3
20,CCN(CC)c1ccc(-c2nc3cnccn3c2NC2CCCC2)cc1,-0.206
21,COc1ccc(CNc2nc(NCc3ccc(OC)cc3)n(C(C)=O)n2)cc1,0.112
22,Cc1occc1C(=O)N/N=C/c1ccc(Cl)c([N+](=O)[O-])c1,-0.263
23,CN(C)C(CNC(=O)CCCc1c[nH]c2ccccc12)c1ccco1 (configuration not stated),-0.0945

row,Structure (SMILES),z-score
1,CCC(C)(C)n1nnnc1C(c1ccc(O)c(OC)c1)N1CCc2ccccc2C1 (configuration not stated),0.179
2,Cc1ccc(S(=O)(=O)N/N=C/c2cccc([N+](=O)[O-])c2)cc1,-1.79
3,CCCC(=O)Nc1nnc(CC(=O)OCC)s1,0.155
4,Cc1ccc2c(c1)CC1(CN2C)C(=O)OC2(CCCCC2)OC1=O,-0.298
5,CCOc1ccc(OCC)c(NC(=O)CC2Oc3ccc(C)cc3NC2=O)c1 (configuration not stated),0.616
6,O=C1OCc2cc(NS(=O)(=O)c3cccs3)ccc21,-0.0208
7,CCc1cc2c(SCC(=O)c3ccccc3)ncnc2s1,0.275
8,C=CCOC(=O)/C(=C\c1cccc2ccccc12)NC(=O)c1ccccc1,-0.859
9,COCCCNC(=O)C(=O)NCCCOC(C)C,-0.0971
10,COn1c(SCc2cccc(Cl)c2)nc2ccccc2c1=O,1.06
11,O=C(Oc1ccc(Br)cc1)C1CC(=O)N(c2ccc(F)cc2)C1 (configuration not stated),-2.14
12,CCN(CC)S(=O)(=O)c1ccc2c(c1)nc(SCC(=O)N1CCCCCC1)n2-c1ccc(OC)cc1,-0.307
13,Cc1ccc(S(=O)(=O)N2CCCN(c3nc4cc(C)ccc4cc3C#N)CC2)cc1,0.114
14,O=C(COc1ccccc1)N1CCN=C1c1ccccc1,-0.0473
15,CCOc1ccc(/C(O)=C2/C(=O)C(=O)N(CCCn3ccnc3)C2c2cccs2)cc1Cl (configuration not stated),0.304
16,Cc1ccccc1C1C2=C(Nc3[nH]n(-c4ccccc4)c(=O)c31)c1ccccc1C2=O (configuration not stated),0.625
17,COc1ccc(Cc2nc(-c3ccccn3)no2)cc1,0.268
18,COC(=O)c1ccc(N/C(=N/S(=O)(=O)c2ccccc2)c2ccccc2)cc1,-0.286
19,CCOc1ccccc1N1CCN(CC(=O)Nc2nnc(CC)s2)CC1,-0.692
20,CCOc1ccc2c(=O)c(-c3ccc4c(c3)OCCCO4)c(C)oc2c1,0.521
